Measured values: PMC4242493
The other results are listed elsewhere or left out. The list includes weakly bound sequences.

These sequences were tested against MaxL homodimer (UniProt P61244) (assay: universal protein-binding microarray (PBM)). Conditions: PBS-based mixture, 10 nM His-tagged protein dimer, 2% milk, 200 ng/uL BSA, 50 ng/uL salmon testes DNA, 0.02% TX-100; detection with Alexa 488 anti-His …; high values mean tight binding; most listed sequences are background and not binding sites; double strand, one strand shown.
Chain of UniProt P61244 (P61244 whole entry): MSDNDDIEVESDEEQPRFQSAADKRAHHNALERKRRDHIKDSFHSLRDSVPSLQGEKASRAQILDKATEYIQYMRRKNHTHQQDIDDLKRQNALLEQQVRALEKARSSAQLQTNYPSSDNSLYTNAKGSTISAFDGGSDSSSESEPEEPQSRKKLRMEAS

Sequence	binding signal (normalized occupancy)
CTAAATCA	0.0726
GTTATAGA	0.0851
GAGCGCAA	0.0672
CTGCTGGC	0.0733
CCCGACCC	0.0781
CAAAGTGG	0.0719
CAGAATAC	0.0753
CTTTTGTA	0.0739
ACCTAACC	0.0792
ATTTTGAG	0.0789
GAAAACCC	0.0762
ACAATAGG	0.0767
CTCGAAAA	0.0738
TCACCCGA	0.0767
CAGTGATA	0.0738
CCAAGTGA	0.0743
ATCCACGA	0.0905
GTTAGTAA	0.0769
GCCAGTAA	0.0754
GACTCTGC	0.0711
CGCTAGGC	0.0642
GAGTAAAA	0.0732

Sequence	binding signal (normalized occupancy)
AGCGAGTG	0.0717
TAATTCGA	0.0739
AAGTTCTC	0.0677
CGTCTCGA	0.071
AAAACGAT	0.0742
ATTAGCTG	0.0693
ACCTACCG	0.0732
CTGGCCAA	0.0728
CATTAAAC	0.0799
GAAGTAAC	0.0709
ATACAGCC	0.0817
GGCGTAAA	0.0747
AGGCCGGA	0.0695
ACGGATAC	0.0815
GCATGCAA	0.0988
TAAATGGA	0.0741
CCGAACTA	0.0689
AGGGATAT	0.0823
ACAGAAGT	0.0784
AGAATCGG	0.068
CTAGGACA	0.0729
ACCAAATG	0.0801

Sequence	binding signal (normalized occupancy)
GACCAGTA	0.0734
TCACCGGA	0.0724
CCACGACA	0.0811
ATGCAGAA	0.0766
GCACTAGA	0.0727
GTTCTAAA	0.0731
CTGTATTC	0.0743
ACCCTGAT	0.0778
CAGCCCTC	0.0697
CTAGGAAA	0.0739
CACGGAGC	0.0724
TAGTGCAA	0.0748
TAGATGGA	0.081
AAGTTAGG	0.0725
GAGTGGAA	0.0794
GACCGATA	0.075
AGTATCGG	0.0757
ACCTGCGG	0.0729
ATAGTTAA	0.0783
ACATCGAG	0.0795
TCTGGCAA	0.0694
ACTAGATC	0.08

Sequence	binding signal (normalized occupancy)
AAGGAAAC	0.0656
GCGAGCTA	0.071
CATGATGA	0.0888
ACAAGCAA	0.0715
ACTGAATA	0.0769
CAAGAGGG	0.0744
TAACATTA	0.0826
CGGCCTGA	0.0749
AGTAACAA	0.0728
AGCCGTTA	0.0719
GACAGTAA	0.0794
AGTCTGAG	0.0681
ACTCTAAC	0.0762
TACTTATA	0.0836
ACTGCACG	0.0892
AGGCCCAC	0.0777
CGGGGAGC	0.0665
TATATTGA	0.0845
GAAACCGA	0.0713
AGCCATGA	0.0819
